Results on 23 sequences are retold here after article PMC7819943, “Rice protein-binding microarrays: a tool to detect cis-acting elements near promoter regions in rice”.

The list shows a part of the results.

This test has as its target T1, OsWOX13 (Oryza sativa, UniProt Q5QMM3 1-267).
T1 sequence: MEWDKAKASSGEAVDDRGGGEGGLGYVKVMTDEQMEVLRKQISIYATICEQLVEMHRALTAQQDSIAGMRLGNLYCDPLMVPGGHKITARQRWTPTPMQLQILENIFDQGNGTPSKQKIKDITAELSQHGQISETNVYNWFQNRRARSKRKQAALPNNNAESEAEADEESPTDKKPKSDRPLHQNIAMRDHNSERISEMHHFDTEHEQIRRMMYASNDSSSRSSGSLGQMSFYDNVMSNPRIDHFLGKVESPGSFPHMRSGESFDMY
The test is described as follows: protein-binding microarray (RPBM); PBS, 2% BSA, 51.3 ng/ul salmon testes DNA, 50 uM zinc acetate, 200 nM TF, 25 C, 1 h; high values mean tight binding. To be noted: protein: recombinant; tags: N-terminal polyhistidine and DsRed monomer fusion (pET32a); label: CyDye5-dUTP incorporated in the synthesized complementary strand; 3' TTTTT single-stranded linker to array surface; dsDNA, one strand shown. The method in brief: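 Polyhistidine-tagged DsRed fusions of transcription factors, joined at the N-terminus, were expressed in E. coli BL21-CodonPlus and isolated on Ni–NTA. They were incubated at 200 nM for 1 h at 25 °C on a custom Agilent array, double-stranded and BSA-blocked, in PBS with 2% BSA, salmon testes DNA and 50 µM zinc acetate. The binding signal is per-feature fluorescence intensity (arbitrary units) read on an Axon 4000B scanner after washing.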
Turning to “GTGGAGAGTTGTGATTGGTTGAGAAGAAAATATTGGTAGACGGAGTCACCTAGTGCAG”, the binding signal was 14400 fluorescence intensity (a.u.).
In the case of “ATTATAATTAGCTTTCTTTTGTCATTTTGCAAGCAAACATCGGAGTCACCTAGTGCAG” it was 14400 fluorescence intensity (a.u.).
Next, “ACAATAGATATGATGATGATCCAATCTTATCTTCTTGTGGCGGAGTCACCTAGTGCAG”: 6390 fluorescence intensity (a.u.); “ATACTAACCAAATTTCAGGTTGATTGTTTACTGCTTTCAACGGAGTCACCTAGTGCAG”: 18800 fluorescence intensity (a.u.).
In the case of “CGTCTATAGCCAATCTAATAGCCAATTCATACAATAGATGCGGAGTCACCTAGTGCAG” it was 4280 fluorescence intensity (a.u.); in that of “GCAGATGTAATTACAGTACAATCATAGTGTAATTACACTGCGGAGTCACCTAGTGCAG”, 36000 fluorescence intensity (a.u.); in that of “CTAGATGATATGCTAGATGAATTGAGTGGGTCTATGATATCGGAGTCACCTAGTGCAG”, 5540 fluorescence intensity (a.u.).
For the sequence “ACCTATTTTACTCTTAGCAATCAATTTAGCATATTTATCTCGGAGTCACCTAGTGCAG”, the binding signal is 3500 fluorescence intensity (a.u.).
Next, “GTCAACTGGAAATTGAAATTCAGCCAAAATTAGTGATCAGCGGAGTCACCTAGTGCAG”: 4850 fluorescence intensity (a.u.); “TTACGAGATGGTGATTGCTAATTGGTGGTACTAGCTAGTACGGAGTCACCTAGTGCAG”: 21800 fluorescence intensity (a.u.); “ACCAATTTTCGTTGTTAACTTTCTCAATGTTCATGCCGTGCGGAGTCACCTAGTGCAG”: 3300 fluorescence intensity (a.u.).
Next, “TAATCTAATTGAGACGCTTATGGGCTCGCTAACCGACCACCGGAGTCACCTAGTGCAG”: 27200 fluorescence intensity (a.u.).
Next, “ACTCACTGTAATTTTGGTATAATTTAATAACTAAATTTGGCGGAGTCACCTAGTGCAG”: 16700 fluorescence intensity (a.u.); “TCCATGATTAGCCTGTGTGATGTTACAGTAAACATTCTCTCGGAGTCACCTAGTGCAG”: 33300 fluorescence intensity (a.u.).
Turning to “ATTGTTATTGATGACATATGGGATAAGAAATCATGGGAGTCGGAGTCACCTAGTGCAG”, the binding signal was 7300 fluorescence intensity (a.u.).
In the case of “AATCTCTGAATAAATTGATTTGCACTAGTTCTAGAAGCTGCGGAGTCACCTAGTGCAG” it was 36000 fluorescence intensity (a.u.).
Next, “GTAGGTGATTAGACCATTCTAACCCTCATCGACAACTCGGCGGAGTCACCTAGTGCAG”: 22200 fluorescence intensity (a.u.); “ACCTAATATTAGATTGGACACATCTTATTACTATGAATCTCGGAGTCACCTAGTGCAG”: 18200 fluorescence intensity (a.u.); “AAATGATTGAATCCTAGAAACTCTGACCTATACAAGTGGTCGGAGTCACCTAGTGCAG”: 60500 fluorescence intensity (a.u.).
On to “GGCATGTTTGATTTGGCACAAATTTTGAGAACTTTTACGGCGGAGTCACCTAGTGCAG”, for which the binding signal was 6770 fluorescence intensity (a.u.).
Next, “GTTTAGATTGGTAGGTTTGACACTGTTTGATGCTAAAACACGGAGTCACCTAGTGCAG”: 15500 fluorescence intensity (a.u.); “TCATTAACGCATAATTAATTGAGTTTTGATTATTAAACTTCGGAGTCACCTAGTGCAG”: 20800 fluorescence intensity (a.u.); “CAATGGAATTAATCATGATAGCAGCCAGGTACGTAGCAGCCGGAGTCACCTAGTGCAG”: 7550 fluorescence intensity (a.u.).
